In the RNAGym collection of RNA variant scans (doi:10.7554/elife.90254):
Read counts are not given, so values of variants with three or more changes are uncertain.

B1: LINE1-mini (parent)
chain: GGCAGAGCUCAACACAGCGUGGCAAAGUGGCUGUGGCUAGACUGCC

Variants of: B1
Assay: self-cleavage, relative activity (ratio to wild type); higher = more cleavage; in vitro, sequencing; the parent is a self-cleaving ribozyme

Variant	self-cleavage
GGCAGAGCUCACCACAGCGUGGCAAACUGGCGGUGGCUAGACUGCC	0
GGCAGAGCUCACCACAGCGUGUCAAAGUGGCUGUGGCAAGACCGCC	0
GGCAGAGCUCACCACAGCUUGGCAAAGUGGCUGUGGCUAGACUGGG	0.04
GGCAGAGCUCACCACAGUGUGGCAAAGUGGCUGGGUCUAGACUGCC	0.01
GGCAGAGCUCACCACAGCGUGGCAGAGUGGCUGUGGCUAGACUUCC	0.05
GGCAGAGCUCACCAAAGCGUGGCAAAGUGGCUGUGGCUAGACCGCC	0.01
GGCAGAGCUCACCACAACGUGGCAAAGUGGUUGUGCGUAGACUGCC	0.01
GGCAGAGCUCACCACAGCGUGGCAAAAUGGCUGUGGCUAGACUGUC	0.02
GGCAGAGCUCACUACAGCGUGGCAAAGUGGCUGAGGCUAGACUGCC	0.01
GGCAGAGCUCACCACAGCGUGGUAAAGUGGCUGUAGCUAGACUUCC	0
GGCAGAGCUCACCACAGCGUGGAAACGUGCCUGUGGCUAGAUUGCC	0.01
GGCAGAGCUCACCACAGAGUGGCAUAUUGGCGGUGGCUAGACUGCC	0.03
GGCAGAGCUCACUACAGCGUUGCAAAGUGGCUGUGGCUACACUGCC	0.08
GGCAGAGCUCACCACAGCGUGGCAAGGUGGCUGUGGCUUGAGUGCC	0
GGCAGAGCUCACCACAGCGUGGAACAGUGGCUGUUGCUAGACUGCC	0.01
GGCAGAGCUCACCACAGUGUGGCAAAGUGGCUCUGCCUAGACUGCC	0.02
GGCAGAGCUCACAACACCGUGGCAAAGUGGCUGUGGCUAGACUGCC	0.09
GGCAGAGCUCACCACAGCGUGGCAACUUGGCUGUGGCAAGACUGCC	0.01
GGCAGAGCUCACCACAGCGUGGCAAAGUAGGUGUGGCUUGACUGCC	0.02

Variant	self-cleavage
GGCAGAGCUCACCACAGAAUGGCUAAGUGGCUGUGGCUAGCCUGCC	0
GGCAGAGCUCACCAGAGCUUGGCAAAGUGGCUUUGGCUAAACUGCC	0
GGCAGAGCUCACCAGAGUGUGGCAAAGUGGCUGUCGCUAGAGUGCC	0.01
GGCAGAGCUCACCACAGCGUAGCAAAGUGGCUGUUGCUAGACUGGC	0.03
GGCAGAGCUCACCACAGCGUUGCAAAGUGCCUGUUGCUAGACUGCC	0.01
GGCAGAGCUCACCACAGCGUGGCAAAGUAGCUGUGGCUUGAGUGCC	0
GGCAGAGCUCACCACAGCGUGCCUAAGUGGCUGUGGCUAGACUGCC	0.05
GGCAGAGCUCACCACAGCGUGGGAAAGUGGCUGUAGCUAGACUGCC	0.05
GGCAGAGCUCACCACUGCGUGGCAACGUGGAUGUGGCUAGACUGCC	0
GGCAGAGCUCACCACAGCGUGGAAAAGUGGCUGUGUCUAGACUGAC	0.02
GGCAGAGCUCACCACAGCGUGGAAAAGUGGCUGUGGUUAGACUGCC	0
GGCAGAGCUCACCACAGAGUGGCAAAGUGGCUGUGGCCAGAGUGCC	0.04
GGCAGAGCUCACCACAUCGUGGCAAAGUGGCUGUGGCCAGACUGCC	0.01
GGCAGAGCUCACCACAGCGUGGCAAAGUGGCUGUGGCUAGAGCGGC	0.01
GGCAGAGCUCACCACAGCGUGGCAAAGUGGCUGUGGGUAGCCUGCC	0.01
GGCAGAGCUCACCACAUCGUUGCAGAGUGGCUGUGGCUAGACUGCC	0.01
GGCAGAGCUCACCACAGCGUGGCAAUGUGGGUGUGGCUAGACUGCC	0.01
GGCAGAGCUCACCACAGCGUUGCAAAGUGGCUGUGACUAUACUGCC	0.17
GGCAGAGCUCACCACACAGUGACAAAGUGGCUGUGGCUACACUGCC	0.02

Variant	self-cleavage
GGCAGAGCUCACCACAGCCUGGCAAAGUGGCUGUGACUAGACUGCC	0.04
GGCAGAGCUCACCAGAGCGUGGCAAAGUGACUGUGGCUAGAAUGCC	0
GGCAGAGCUCACCACAGGGUGGCAAAGUGGCAGUGGCUAGACUUCC	0.01
GGCAGAGCUCACCACAGCGUAGCAAAGUGGCUAUGGCUAUACAGCC	0.01
GGCAGAGCUCACCACAGAGUGGCAAAGUGGCUGUGGCUAUACUGCC	0.01
GGCAGAGCUCACAACAGCGUGGCAAAGUGGUUGUGGCUAGACUGCC	0.01
GGCAGAGCUCACCACAGCGUGGUAAAGUGGCUGUGGCUAGAAUGCC	0.05
GGCAGAGCUCACCACAGAGUGGCAAAGAGUCUGUGGCUACACUGCC	0.01
GGCAGAGCUCACCAGAGCGGGGCAGAGUGGCUGUGGCUAGACUUCC	0.02
GGCAGAGCUCACCACAGCGUUGCAAGGUGGUUGUGGCUAGACUGCC	0
GGCAGAGCUCACCACAGCGUGGCCAAUUGGCUGAGGCUAGACUGCC	0.06
GGCAGAGCUCACCACUCUGUGGCAAUGUGGCUGUGGCUAGACUGCC	0.04
GGCAGAGCUCACCAAAGCGUGGCAAAGUGGCUGUGGCUAGACUCCC	0.01
GGCAGAGCUCACCAGAGCGUGGCAAAGUGACUGUGCCUAGACAGCC	0
GGCAGAGCUCACCACAGGGUGUCAAAUUGACUGUGGCUAGACUGCC	0
GGCAGAGCUCACCACAGCUUCGCAAAGUGGCUGUGGCUAGACAGCC	0.01
GGCAGAGCUCACCACAGCGUGGCAUAGCGACUGUGGCUCGACUGCC	0.02
GGCAGAGCUCACCACAGCGUGGCAAAAUGGAUGUGGCUAGACUGCC	0.01
